# Where “and” joins values, the source holds several entries; their conditions need not be identical. Equal entries are not always repeated. The shares of active, inactive and inconclusive entries below differ from those in the screen. For some assays here: A potency beside an inconclusive call is a rough fit, not a confirmed value. Some compounds were tested as several samples or in several runs, with calls that do not always agree. Calls of active or inactive are those of the source. Unless noted, calls follow the shape of the dose curve; as a rule, active = well fitted curve in the direction sought with a large enough effect in the repeat runs; inconclusive = weak or mixed curves; inactive = no such curve, though single readings can be large; an effect the other way counts as inactive or inconclusive.
# How the values were obtained:
# [1] = qHTS assay to identify small molecule antagonists of the peroxisome proliferator-activated receptor gamma (PPARg) signaling pathway - cell viability counter screen (AID 743194); conditions: PPARg-bla HEK293H viability, CellTiter-Glo luminescence, 17 h; Potency: co-treated with 50 nM rosiglitazone unless noted; activity change, negative = cytotoxicity: at 62.6 µM (top of the series), co-treated with 50 nM rosiglitazone unless noted; also: potency is read from the fitted curve at half-maximal effect; nearly all actives have a fitted effect of over 55% in size
# Procedure, shortened: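 PPARg-UAS-bla HEK293H cells were plated, rested 5 h at 37 C, then treated with compounds plus rosiglitazone (50 nM final) for 17 h at 37 C; viability was then read by CellTiter-Glo luminescence after 30 min at room temperature.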
# [2] = qHTS assay for small molecule agonists of the antioxidant response element (ARE) signaling pathway (AID 743202; active = well fitted activation curve with a large enough effect in the signal ratio in the repeat runs, not every such curve was filed as active; inconclusive = weak or mixed curves, or effect the other way; inactive = no such curve, though single readings can be large or run the other way; the % refers to the signal ratio; also: potency is read from the fitted curve at half-maximal effect); conditions: HepG2 ARE-bla reporter, beta-lactamase FRET, 16 h; activation: at 73.3 µM (top of the series) unless noted
# Procedure, shortened: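 Following a 16 h, 37 C exposure of reporter HepG2 cells (ARE-driven beta-lactamase, 2,000 cells/well) to compounds, FRET substrate was applied for 2 h at room temperature and fluorescence intensity recorded.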
# [3] = qHTS assay for small molecule activators of the heat shock response signaling pathway (AID 743210; active = well fitted activation curve with a large enough effect in the signal ratio in the repeat runs, with a control signal flat, not every such curve was filed as active; inconclusive = weak or mixed curves; the % refers to the signal ratio; also: potency is read from the fitted curve at half-maximal effect); conditions: HeLa HSE-bla reporter, beta-lactamase ratio, 5 h; activation: at 62.6 µM (top of the series)
# Procedure, shortened: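 Heat shock element–beta-lactamase HeLa reporter cells; qHTS with compounds for 5 h at 37 C; detection by FRET substrate fluorescence after 2.5 h at RT.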
# [4] = qHTS assay to identify small molecule agonists of the peroxisome proliferator-activated receptor delta (PPARd) signaling pathway - cell viability counter screen (AID 743211); conditions: PPARd-bla HEK293H viability, CellTiter-Glo luminescence, 17 h; activity change, negative = cytotoxicity: at 62.6 µM (top of the series) unless noted; also: potency is read from the fitted curve at half-maximal effect; nearly all actives have a fitted effect of over 55% in size
# Procedure, shortened: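 Following 5 h plating at 37 C and 5% CO2, PPARd UAS-bla HEK293H cells took up test compounds for 17 h. Viability was quantified by luminescence 30 min after CellTiter-Glo addition at room temperature.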
# [5] = qHTS assay to identify small molecule antagonists of the peroxisome proliferator-activated receptor delta (PPARd) signaling pathway - cell viability counter screen (AID 743213); conditions: PPARd-bla HEK293H viability, CellTiter-Glo luminescence, 17 h; viability change, negative = cytotoxic: at 62 µM (top of the series) unless noted; also: nearly all actives have a fitted effect of over 50% in size; also: potency is read from the fitted curve at half-maximal effect
# Procedure, shortened: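 PPARd-bla HEK293H cells (3000/well) got compound plus 300 nM L165041 agonist for 17 h at 37 C. Viability in the same wells came from CellTiter-Glo luminescence after 30 min at room temperature.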
# [6] = target: Peroxisome proliferator-activated receptor delta (Homo sapiens) (UniProt Q03181); assay: qHTS assay to identify small molecule antagonists of the peroxisome proliferator-activated receptor delta (PPARd) signaling pathway (AID 743215; active = well fitted inhibition curve with a large enough effect in the signal ratio in the repeat runs, not every such curve was filed as active; inconclusive = weak or mixed curves, or effect the other way; inactive = no such curve, though single readings can be large or run the other way; the % refers to the signal ratio;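 also: cells stimulated with agonist L165041 at 300 nM final during compound exposure; % is scaled to controls: 0 for no effect and ±100 for the full control effect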); conditions: HEK293H PPARd-UAS-bla, beta-lactamase FRET ratio, antagonist, 17 h; ratio activity, negative = inhibition: at 62 µM (top of the series) unless noted
# Sequence of UniProt Q03181 (Q03181 whole entry, looked up): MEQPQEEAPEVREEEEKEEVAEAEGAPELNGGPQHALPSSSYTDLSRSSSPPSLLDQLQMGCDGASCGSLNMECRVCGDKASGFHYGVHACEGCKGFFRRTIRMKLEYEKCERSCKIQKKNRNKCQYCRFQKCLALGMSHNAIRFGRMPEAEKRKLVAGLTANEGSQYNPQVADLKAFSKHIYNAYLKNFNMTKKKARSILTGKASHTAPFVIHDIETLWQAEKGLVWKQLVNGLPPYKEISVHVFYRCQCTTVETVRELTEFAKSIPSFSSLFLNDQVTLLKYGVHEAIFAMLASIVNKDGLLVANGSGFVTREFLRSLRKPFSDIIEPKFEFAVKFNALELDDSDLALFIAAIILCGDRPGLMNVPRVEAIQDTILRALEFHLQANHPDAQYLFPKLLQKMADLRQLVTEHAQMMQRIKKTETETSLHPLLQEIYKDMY
# Procedure, shortened: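 Screen format: qHTS, antagonist mode. HEK293H PPARd-bla cells received compound and 300 nM L165041 (final), 17 h, 37 C. Beta-lactamase detected via FRET substrate fluorescence, 2 h, room temperature.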
# [7] = qHTS assay to identify small molecule agonists of the farnesoid-X-receptor (FXR) signaling pathway - cell viability counter screen (AID 743218); conditions: FXR-bla HEK293T viability, CellTiter-Glo luminescence, 16 h; viability change, negative = cytotoxic: at 62.6 µM (top of the series) unless noted; also: nearly all actives have a fitted effect of over 45% in size; also: potency is read from the fitted curve at half-maximal effect
# Procedure, shortened: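 Same-well cytotoxicity check on FXR-UAS-bla HEK 293T cells: 5 h attachment, 16 h compound at 37 C, CellTiter-Glo luminescence read at room temperature after 30 min.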
# [8] = qHTS assay to identify small molecule agonists of the NFkB signaling pathway - cell viability counter screen (AID 1159515; calls by dose curve; also: nearly all actives have a fitted effect of over 55% in size; also: potency is read from the fitted curve at half-maximal effect)
# Procedure, shortened: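 Counter screen run alongside the NFkB-bla agonist assay: ME-180 reporter cells exposed to compounds for 5 hr, then lysed with CellTiter-Glo in the same wells. Luminescence, read after 30 min, reflects viable cells.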
# [9] = target: Bile acid receptor (Homo sapiens) (UniProt Q96RI1); assay: qHTS assay to identify small molecule antagonists of the farnesoid-X-receptor (FXR) signaling pathway (AID 743217; active = well fitted inhibition curve with a large enough effect in the signal ratio in the repeat runs, not every such curve was filed as active; inconclusive = weak or mixed curves, or effect the other way; inactive = no such curve, though single readings can be large or run the other way; the % refers to the signal ratio; as to all read-outs here: % is scaled to controls: 0 for no effect and ±100 for the full control effect); conditions: HEK293T FXR-UAS-bla, beta-lactamase ratio, CDCA-stimulated, 16 h; for Potency: activity change, negative = inhibition: at 62.6 µM (top of the series) unless noted
# Sequence of UniProt Q96RI1 (Q96RI1 whole entry, looked up): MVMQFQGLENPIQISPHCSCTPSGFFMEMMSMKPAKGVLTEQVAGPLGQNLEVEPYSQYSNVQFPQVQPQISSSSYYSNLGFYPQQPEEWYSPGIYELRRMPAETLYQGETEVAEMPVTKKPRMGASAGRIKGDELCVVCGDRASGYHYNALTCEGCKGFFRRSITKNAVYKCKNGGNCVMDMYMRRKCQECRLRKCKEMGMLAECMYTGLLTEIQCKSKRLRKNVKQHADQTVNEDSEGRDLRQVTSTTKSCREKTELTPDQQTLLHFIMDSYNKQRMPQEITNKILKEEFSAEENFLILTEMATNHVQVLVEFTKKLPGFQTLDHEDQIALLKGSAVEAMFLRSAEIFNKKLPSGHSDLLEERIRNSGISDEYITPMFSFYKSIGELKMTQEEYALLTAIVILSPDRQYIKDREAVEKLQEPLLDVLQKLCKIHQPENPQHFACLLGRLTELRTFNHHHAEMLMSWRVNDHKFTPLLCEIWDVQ
# Procedure, shortened: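 Quantitative HTS, beta-lactamase reporter format: FXR-UAS-bla HEK 293T cells co-treated 16 h at 37 °C with compounds and 50 uM final chenodeoxycholic acid, then read by B/G FRET fluorescence.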
# [10] = target: Bile acid receptor (Homo sapiens) (UniProt Q96RI1); assay: qHTS assay to identify small molecule agonists of the farnesoid-X-receptor (FXR) signaling pathway (AID 743220; active = well fitted activation curve with a large enough effect in the signal ratio in the repeat runs, not every such curve was filed as active; inconclusive = weak or mixed curves, or effect the other way; the % refers to the signal ratio; also: % is scaled to controls: 0 for no effect and ±100 for the full control effect); conditions: HEK293T FXR-UAS-bla, beta-lactamase FRET ratio, 16 h; activation: at 62.6 µM (top of the series) unless noted
# Procedure, shortened: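 FXR-UAS-bla HEK 293T cells carrying a UAS-driven beta-lactamase reporter were plated for 5 h at 37C/5% CO2, then exposed to DMSO-dissolved Tox21 10K compounds for 16 h at 37C. A LiveBLAzer B/G FRET substrate was loaded for 2 h at room temperature before fluorescence reading.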
# [11] = qHTS assay to identify small molecule antagonists of the farnesoid-X-receptor (FXR) signaling pathway - cell viability counter screen (AID 743221; active = well fitted cell-killing curve with a large enough effect in the repeat runs, not every such curve was filed as active; inconclusive = weak or mixed curves, or effect the other way; inactive = no such curve, though single readings can be large or run the other way; also: nearly all actives have a fitted effect of over 50% in size; also: potency is read from the fitted curve at half-maximal effect); conditions: FXR-bla HEK293T viability, CellTiter-Glo luminescence, 16 h; activity change, negative = cytotoxicity: at 62.6 µM (top of the series) unless noted
# Procedure, shortened: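 Compound effects on cell number were measured as CellTiter-Glo luminescence in HEK 293T cells expressing FXR-UAS-bla, after 16 h at 37 C with 50 uM CDCA (final).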
# [12] = qHTS assay to identify small molecule agonists of the vitamin D receptor (VDR) signaling pathway - cell viability counter screen (AID 743224); also: potency is read from the fitted curve at half-maximal effect; nearly all actives have a fitted effect of over 50% in size
# Procedure, shortened: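 Counter screen for cytotoxicity: VDR-bla cells at 2,000 cells/well, 16 h compound exposure, then CellTiter-Glo luminescence after the beta-lactamase measurement.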
# [13] = qHTS assay to identify small molecule antagonists of the vitamin D receptor (VDR) signaling pathway - cell viability counter screen (AID 743225); conditions: VDR-bla HEK293T viability, CellTiter-Glo luminescence, 16 h; viability change, negative = cytotoxic: at 61 µM (top of the series) unless noted; also: % is scaled to controls: 0 for no effect and ±100 for the full control effect; nearly all actives have a fitted effect of over 50% in size
# Procedure, shortened: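 In this counter screen, VDR-bla HEK 293T cells receive test compound plus 3 nM final calcitriol for 16 h at 37C. Room-temperature steps of 2 h with the beta-lactamase substrate, then 30 min with CellTiter-Glo, precede the luminescence read.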
# [14] = qHTS assay for small molecule agonists of the antioxidant response element (ARE) signaling pathway - cell viability counter screen (AID 743203; calls by dose curve; also: potency is read from the fitted curve at half-maximal effect; nearly all actives have a fitted effect of over 55% in size)
# Procedure, shortened: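 Parallel cytotoxicity read-out for the ARE-bla screen: HepG2 reporter cells, 16 hrs with compounds, then CellTiter-Glo luminescence.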
# [15] = target: Peroxisome proliferator-activated receptor delta (Homo sapiens) (UniProt Q03181); assay: qHTS assay to identify small molecule agonists of the peroxisome proliferator-activated receptor delta (PPARd) signaling pathway (AID 743212; calls by dose curve;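 also: HEK293H cells with PPARd UAS beta-lactamase reporter GeneBLAzer system; % is scaled to controls: 0 for no effect and ±100 for the full control effect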); conditions: HEK293H PPARd-UAS-bla, beta-lactamase FRET ratio, 17 h; activation: at 62.6 µM (top of the series) unless noted
# Procedure, shortened: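 Beta-lactamase reporter read by fluorescence (LiveBLAzer B/G FRET, 2 h, room temperature). Test agents, in DMSO, incubated at 37 C with PPARd-bla HEK293H cells.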
# Tags tell the direction and shape of the fitted curve or compound fluorescence and quenching.
smiles,measurement,setting,value
CCC(=O)C(CC(C)N(C)C)(c1ccccc1)c1ccccc1 (stereo unspecified),Potency,[1],"inconclusive: 8.65 µM [cytotoxic, full curve, poor fit] [setting not given]"
same,Potency,[2],"inconclusive: 24.4 µM [falling, partial curve, poor fit] and inconclusive: 4.15 µM [falling, partial curve, poor fit]"
same,activation,[2],inconclusive: -2.2%
same,Potency,[3],inconclusive: 9.01 µM [activator]
same,Potency,[4],"inconclusive: 54.7 µM [cytotoxic, partial curve, poor fit] and inconclusive: 54.6 µM [cytotoxic, single point] and inconclusive: 41.9 µM [cytotoxic, partial curve, poor fit]"
same,Potency,[5],"inconclusive: 24.4 µM [cytotoxic, full curve, poor fit] and active: 37.4 µM"
same,"ratio activity, negative = inhibition",[6],inconclusive: 5.62% [at 80.4 µM]
same,Potency,[7],"inconclusive: 48.6 µM [cytotoxic, single point] and inconclusive: 37.4 µM [cytotoxic, partial curve, poor fit]"
same,Potency,[8],active: 43.8 µM
OCC1CO1 (stereo unspecified),activation,[2],inconclusive: 21.3% [at 94.8 µM]
same,Potency,[9],inactive
same,Potency,[10],inactive
same,Potency,[8],"inconclusive: 0.0014 µM [rising, full curve, poor fit]"
CC[N+]1(C)CCCC1,Potency,[2],inconclusive: 60.9 µM
same,Potency,[4],"inconclusive: 8.73 µM [cytotoxic, partial curve, poor fit]"
same,Potency,[11],"inconclusive: 12.3 µM [falling, full curve, poor fit]"
same,Potency,[12],inconclusive: 63.2 µM [cytotoxic]
same,Potency,[8],"inconclusive: 0.435 µM [cytotoxic, single point]"
O=[N+]([O-])c1cccc2ccccc12,Potency,[2],"inconclusive: 61.1 µM [rising, partial curve, poor fit]"
same,Potency,[6],inactive
same,Potency,[13],inactive
same,Potency,[8],"inconclusive: 5.49 µM [cytotoxic, partial curve, poor fit]"
CC(=O)[O-].[Tl+],Potency,[2],"inconclusive: 69 µM [rising, partial curve, poor fit]"
same,Potency,[14],"inconclusive: 0.173 µM [cytotoxic, full curve]"
same,Potency,[7],inactive
same,Potency,[8],"inconclusive: 49.3 µM [cytotoxic, partial curve, poor fit]"
Cn1cc[n+](C)c1 (tested in a mixture with another compound),Potency,[2],inactive
same,Potency,[15],inactive
same,"viability change, negative = cytotoxic",[5],inconclusive: 11.4% [cytotoxic] [at 80.4 µM]
same,Potency,[9],inactive
same,Potency,[8],"inconclusive: 43.9 µM [cytotoxic, partial curve, poor fit]"
CCOP(=S)(OCC)OP(=S)(OCC)OCC,Potency,[1],"inconclusive: 87.1 nM [cytotoxic, full curve, poor fit]"
same,"activity change, negative = inhibition",[9]; at 62.6 µM (top of the series),inconclusive: -5.81%
same,"activity change, negative = inhibition",[9]; at 81.1 µM (top of the series),inconclusive: -14.4%
same,"viability change, negative = cytotoxic",[13],inconclusive: -21% [cytotoxic] [at 78.8 µM]
same,Potency,[8],inactive
CN(C)CCc1c[nH]c2cccc(O)c12,Potency,[2],"inconclusive: 24.1 µM [falling, partial curve, poor fit]"
same,Potency,[3],inconclusive: 65.3 µM [activator]
same,"activity change, negative = cytotoxicity",[11],inconclusive: -22.5% [at 81.1 µM]
same,Potency,[12],"inconclusive: 60.5 µM [cytotoxic, single point]"
same,Potency,[8],"inconclusive: 61 µM [cytotoxic, single point]"

# — PubChem BioAssay (Tox21)
